# These are yes or no findings as the source states them, for the method shown. In cells and extracts the contact can be indirect. Some entries that bind do so weakly or less than the wild type.
# Protein sequences, listed by entry. Tags and fused reporters are not part of them. Lines headed by an entry give the natural chain unless they say otherwise; changes in a name come on top.
# UniProt Q96SB3: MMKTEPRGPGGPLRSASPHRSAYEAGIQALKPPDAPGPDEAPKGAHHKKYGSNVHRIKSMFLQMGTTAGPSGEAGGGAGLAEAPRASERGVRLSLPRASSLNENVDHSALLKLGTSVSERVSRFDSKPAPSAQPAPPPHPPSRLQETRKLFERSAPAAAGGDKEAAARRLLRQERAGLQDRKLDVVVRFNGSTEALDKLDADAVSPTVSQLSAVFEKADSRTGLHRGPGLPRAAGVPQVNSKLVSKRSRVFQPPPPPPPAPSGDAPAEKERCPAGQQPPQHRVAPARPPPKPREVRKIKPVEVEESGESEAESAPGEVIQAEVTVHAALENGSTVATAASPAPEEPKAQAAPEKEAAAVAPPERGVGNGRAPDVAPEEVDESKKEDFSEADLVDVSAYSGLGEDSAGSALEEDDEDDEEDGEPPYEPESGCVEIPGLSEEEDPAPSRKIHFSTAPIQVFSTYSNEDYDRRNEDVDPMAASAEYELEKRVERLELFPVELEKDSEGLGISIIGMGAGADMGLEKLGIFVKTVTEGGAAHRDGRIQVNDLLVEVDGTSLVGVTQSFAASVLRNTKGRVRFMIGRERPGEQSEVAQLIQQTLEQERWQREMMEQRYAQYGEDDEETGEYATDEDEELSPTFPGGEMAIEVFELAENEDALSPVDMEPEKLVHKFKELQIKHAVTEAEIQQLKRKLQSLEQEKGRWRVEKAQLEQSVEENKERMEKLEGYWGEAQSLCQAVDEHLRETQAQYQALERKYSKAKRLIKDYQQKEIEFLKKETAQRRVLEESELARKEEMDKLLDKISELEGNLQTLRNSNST
# B1: total pRB (protein, UniProt P06400 1-928)
# chain: MPPKTPRKTAATAAAAAAEPPAPPPPPPPEEDPEQDSGPEDLPLVRLEFEETEEPDFTALCQKLKIPDHVRERAWLTWEKVSSVDGVLGGYIQKKKELWGICIFIAAVDLDEMSFTFTELQKNIEISVHKFFNLLKEIDTSTKVDNAMSRLLKKYDVLFALFSKLERTCELIYLTQPSSSISTEINSALVLKVSWITFLLAKGEVLQMEDDLVISFQLMLCVLDYFIKLSPPMLLKEPYKTAVIPINGSPRTPRRGQNRSARIAKQLENDTRIIEVLCKEHECNIDEVKNVYFKNFIPFMNSLGLVTSNGLPEVENLSKRYEEIYLKNKDLDARLFLDHDKTLQTDSIDSFETQRTPRKSNLDEEVNVIPPHTPVRTVMNTIQQLMMILNSASDQPSENLISYFNNCTVNPKESILKRVKDIGYIFKEKFAKAVGQGCVEIGSQRYKLGVRLYYRVMESMLKSEEERLSIQNFSKLLNDNIFHMSLLACALEVVMATYSRSTSQNLDSGTDLSFPWILNVLNLKAFDFYKVIESFIKAEGNLTREMIKHLERCEHRIMESLAWLSDSPLFDLIKQSKDREGPTDHLESACPLNLPLQNNHTAADMYLSPVRSPKKKGSTTRVNSTANAETQATSAFQTQKPLKSTSLSLFYKKVYRLAYLRLNTLCERLLSEHPELEHIIWTLFQHTLQNEYELMRDRHLDQIMMCSMYGICKVKNIDLKFKIIVTAYKDLPHAVQETFKRVLIKEEEYDSIIVFYNSVFMQRLKTNILQYASTRPPTLSPIPHIPRSPYKFPSSPLRIPGGNIYISPLKSPYKISEGLPTPTKMTPRSRILVSIGESFGTSEKFQKINQMVCNSDRVLKRSAEGSNPPKPLKKLRFDIEGSDEADGSKHLPGESKFQQKLAEMTSTRTRMQKQKMNDSMDTSNKEEK
# B2: P-pRB (Ser807/811) (protein, UniProt P06400 1-928)
# chain: B1 chain
# modifications: phosphoserine at 807/811
# B3: P-p107 (Ser975) (protein, UniProt P28749 1-1068)
# chain: MFEDKPHAEGAAVVAAAGEALQALCQELNLDEGSAAEALDDFTAIRGNYSLEGEVTHWLACSLYVACRKSIIPTVGKGIMEGNCVSLTRILRSAKLSLIQFFSKMKKWMDMSNLPQEFRERIERLERNFEVSTVIFKKYEPIFLDIFQNPYEEPPKLPRSRKQRRIPCSVKDLFNFCWTLFVYTKGNFRMIGDDLVNSYHLLLCCLDLIFANAIMCPNRQDLLNPSFKGLPSDFHTADFTASEEPPCIIAVLCELHDGLLVEAKGIKEHYFKPYISKLFDRKILKGECLLDLSSFTDNSKAVNKEYEEYVLTVGDFDERIFLGADAEEEIGTPRKFTRDTPLGKLTAQANVEYNLQQHFEKKRSFAPSTPLTGRRYLREKEAVITPVASATQSVSRLQSIVAGLKNAPSDQLINIFESCVRNPVENIMKILKGIGETFCQHYTQSTDEQPGSHIDFAVNRLKLAEILYYKILETVMVQETRRLHGMDMSVLLEQDIFHRSLMACCLEIVLFAYSSPRTFPWIIEVLNLQPFYFYKVIEVVIRSEEGLSRDMVKHLNSIEEQILESLAWSHDSALWEALQVSANKVPTCEEVIFPNNFETGNGGNVQGHLPLMPMSPLMHPRVKEVRTDSGSLRRDMQPLSPISVHERYSSPTAGSAKRRLFGEDPPKEMLMDKIITEGTKLKIAPSSSITAENVSILPGQTLLTMATAPVTGTTGHKVTIPLHGVANDAGEITLIPLSMNTNQESKVKSPVSLTAHSLIGASPKQTNLTKAQEVHSTGINRPKRTGSLALFYRKVYHLASVRLRDLCLKLDVSNELRRKIWTCFEFTLVHCPDLMKDRHLDQLLLCAFYIMAKVTKEERTFQEIMKSYRNQPQANSHVYRSVLLKSIPREVVAYNKNINDDFEMIDCDLEDATKTPDCSSGPVKEERGDLIKFYNTIYVGRVKSFALKYDLANQDHMMDAPPLSPFPHIKQQPGSPRRISQQHSIYISPHKNGSGLTPRSALLYKFNGSPSKSLKDINNMIRQGEQRTKKRVIAIDSDAESPAKRVCQENDDVLLKRLQDVVSERANH
# modifications: phosphoserine at 975
# B4: PP1β, P62140 1-327 (enzyme)
# chain: MADGELNVDSLITRLLEVRGCRPGKIVQMTEAEVRGLCIKSREIFLSQPILLELEAPLKICGDIHGQYTDLLRLFEYGGFPPEANYLFLGDYVDRGKQSLETICLLLAYKIKYPENFFLLRGNHECASINRIYGFYDECKRRFNIKLWKTFTDCFNCLPIAAIVDEKIFCCHGGLSPDLQSMEQIRRIMRPTDVPDTGLLCDLLWSDPDKDVQGWGENDRGVSFTFGADVVSKFLNRHDLDLICRAHQVVEDGYEFFAKRQLVTLFSAPNYCGEFDNAGGMMSVDETLMCSFQILKPSEKKAKYQYGGLNSGRPVTPPRTANPPKKR
# Assays:
# [1] = biological target: SPINOPHILIN (wild-type, endogenous) (human (endogenous in T47D and MDA-MB-468)) (UniProt Q96SB3); assay: co-IP; Figure S5 (total pRB); cells, precipitating antibody and conditions not told in the text shown
# SPN-A566V (human) [2] = biological target: SPN-A566V (human) (UniProt Q96SB3); assay: as above
# [3] = biological target: SPINOPHILIN (wild-type, endogenous) (human (endogenous in T47D and MDA-MB-468)) (UniProt Q96SB3); assay: co-IP; anti-SPN (or anti-IgG control) on protein A Sepharose, 1 mg of T47D or MDA-MB-468 cell extract overnight, washed with PBS-BSA and IGEPAL 0.2%; blots for PP1α, PP1β, PP1γ, P-pRB, P-p107, P-p130
# SPN-A566V (human) [4] = biological target: SPN-A566V (human) (UniProt Q96SB3); assay: as above
# [5] = biological target: SPINOPHILIN (wild-type, endogenous) (human (endogenous in T47D and MDA-MB-468)), Q96SB3; assay: as above; conditions: remark: other sources report otherwise
Binder,binding [1],binding (SPN-A566V (human) [2]),binding [3],binding (SPN-A566V (human) [4]),binding [5]
B1,binds,binds,–,–,–
B2,–,–,binds,binds,–
B3,–,–,binds,binds weakly,–
B4,–,–,–,–,no binding
